Reference: PubChem BioAssay AID222 (DTP/NCI, 2004)
Toxic doses and inconclusive results are not listed. Not every entry of the source has a single result; some have several. Only these are listed. An entry can have further records. Results that share an entry differ, and nothing given here explains why; they may come from other doses, times, organisms or constructs than stated.

Tested on: C57BL/6 mice, intracerebral ependymoblastoma, median survival T/C
Assay: NCI In Vivo Anticancer Drug Screen. Data for tumor model Ependymoblastoma (intracerebral) in C57BL/6 mice
Settings: endpoint: median survival time; dose: 64.0 mg/kg/injection; schedule: Q01DX001 (ip); vehicle: Klucel (hydroxypropylcellulose) (HPC); higher = longer survival
Protocol: The antitumor activity of compounds was measured in mice bearing transplantable tumors. Survival or tumor size were measured and the results are expressed as the measurement made in the treated group (T) divided by the measurement made in the vehicle treated control group (C). The tumor model used in this assay is Ependymoblastoma (intracerebral) in C57BL/6 mice

Q: O=NN(CCCl)C(=O)NCCCl was tested. Which T/C did it give?
A: Its T/C is 93 % of control, 104 % of control, 156 % of control.
